# Data published in PubChem BioAssay (NCATS).
# Values joined by “and” are separate entries in the source; they are usually repeats but may differ in a detail not shown here. Identical values can stand only once. Inconclusive results, whose numbers are uncertain, are shown with a selection of clear calls. Potencies beside an inconclusive call are fits to weak or partial responses and may not hold up. Active and inactive are the calls of the source. Calls come from the whole dose curve; as a rule, active = well fitted curve in the direction sought with a large enough effect; inconclusive = small, poorly fitted or top-dose-only effect, or another doubt; inactive = no such curve, though single readings can be large; an effect the other way counts as inactive or inconclusive.
# Tests used:
# [1] = qHTS of pediatric cancer cell lines to identify multiple opportunities for drug repurposing: Primary screen for DAOY cells (AID 1347090); note: nearly all actives have a fitted effect of over 55% in size
# Method in brief: (§1)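 Cell viability, CellTiter-Glo luminescence; 500-1,000 cells/well, 8- or 11-point titration, 48 h compound exposure at 37 degrees C, 5% CO2. Controls: DMSO neutral, bortezomib 2.3 µM final as positive.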
# [2] = qHTS of pediatric cancer cell lines to identify multiple opportunities for drug repurposing: Primary screen for SK-N-MC cells (AID 1347093); conditions: SK-N-MC viability, CellTiter-Glo luminescence, 48 h; activity change, negative = cytotoxic: at 46 µM (top of the series)
# Method in brief: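 Metabolically active cells were quantified by ATP-dependent luminescence (CellTiter-Glo, 15 min at room temperature) following 48 h treatment. Cells had been plated at 500-1,000 per well and settled for 5 h beforehand.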
# [3] = qHTS of pediatric cancer cell lines to identify multiple opportunities for drug repurposing: Primary screen for U-2 OS cells (AID 1347096); note: nearly all actives have a fitted effect of over 50% in size
# Method in brief: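 Cells (500-1,000/well) rested 5 h, then received compounds for 48 h; metabolically active cells were measured by CellTiter-Glo luminescence. Final concentrations spanned up to 46 µM (MIPE, 11-point) or 0.59 nM-46 µM (NPC, 8-point) in primary screens, 11-point in follow-ups.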
# [4] = qHTS of pediatric cancer cell lines to identify multiple opportunities for drug repurposing: Primary screen for A673 cells (AID 1347092); conditions: A673 Ewing sarcoma viability, CellTiter-Glo ATP luminescence, 48 h; activity change, negative = cytotoxic: at 46 µM (top of the series); note: nearly all actives have a fitted effect of over 45% in size
# Method in brief: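 Titration-based qHTS on A673 cells: MIPE compounds spanned 11 points (0.78 nM to 46 µM final), NPC compounds 8 points (0.59 nM to 46 µM final). Viability after 48 h was measured by ATP luminescence.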
# [5] = qHTS of pediatric cancer cell lines to identify multiple opportunities for drug repurposing: Primary screen for BT-37 cells (AID 1347094)
# Method in brief: (§2)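 500-1,000 cells/well; 5 h pre-incubation 37 °C/5% CO2; compound pinned; 48 h; CellTiter-Glo, 15 min RT; luminescence. MIPE 11-pt from 0.78 nM, NPC 8-pt from 0.59 nM final. Bortezomib 2.3 µM final as positive control.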
# [6] = qHTS of pediatric cancer cell lines to identify multiple opportunities for drug repurposing: Primary screen for NB-EBc1 cells (AID 1347095)
# Method in brief: as §2
# [7] = qHTS of pediatric cancer cell lines to identify multiple opportunities for drug repurposing: Primary screen for SJ-GBM2 cells (AID 1347091)
# Method in brief: as §1
# Potency is the fitted concentration of half-maximal effect; tags give direction and shape of the fitted curve.
smiles,measurement,setting,value
Cc1ccc(NC(=O)Nc2cc(C(F)(F)F)ccc2F)cc1Nc1ccc2c(c1)NC(=O)C2=Cc1ccc[nH]1,Potency,[1],active: 14.8 µM
same,Potency,[2],"inconclusive: 4.69 µM [cytotoxic, full curve, poor fit]"
same,Potency,[3],active: 23.5 µM
CC/C(=C(/CC)c1ccc(O)cc1)c1ccc(O)cc1,Potency,[1],active: 21.1 µM
same,Potency,[4],"inconclusive: 21.1 µM [cytotoxic, single point]"
same,Potency,[5],"inconclusive: 24.6 µM [cytotoxic, single point]"
same,Potency,[6],"inconclusive: 29.9 µM [cytotoxic, single point]"
CC(C(O)c1ccc(O)cc1)N1CCC(Cc2ccccc2)CC1 (stereo unspecified),Potency,[1],inactive
same,Potency,[5],"inconclusive: 6.17 µM [cytotoxic, partial curve, poor fit]"
CNc1nc(-c2ccc3c(N)n[nH]c3c2)cc(N2C[C@@H](C(=O)NC3CCCCC3)CC[C@@H]2C)n1,Potency,[1],"inconclusive: 7.43 µM [cytotoxic, partial curve]"
same,Potency,[5],"inconclusive: 5.44 µM [cytotoxic, partial curve]"
same,Potency,[6],"inconclusive: 0.0526 µM [cytotoxic, full curve, poor fit]"
same,Potency,[3],"inconclusive: 23.5 µM [cytotoxic, partial curve]"
C[C@@H]1C[C@H]2[C@@H]3CCC4=CC(=O)C=C[C@]4(C)[C@@]3(F)[C@@H](O)C[C@]2(C)[C@@]1(O)C(=O)CO,Potency,[1],"inconclusive: 23.5 µM [cytotoxic, single point]"
same,Potency,[4],inconclusive: 0.0007 µM [cytotoxic]
same,Potency,[5],inactive
CC(=O)O[C@H]1C[C@@H]2CC[C@H]3[C@H]4C[C@H]([N+]5(C)CCCCC5)[C@@H](OC(C)=O)[C@@]4(C)CC[C@@H]3[C@@]2(C)C[C@H]1[N+]1(C)CCCCC1,Potency,[1],inactive
same,Potency,[2],inactive
O=c1n(CCCN2CCN(c3cccc(Cl)c3)CC2)nc2ccccn12,Potency,[1],inactive
same,Potency,[4],inactive
same,Potency,[3],inactive
CC(C)(C)CC(C)(C)c1ccc(O)c(Cc2ccc(Cl)cc2Cl)c1,Potency,[1],"inconclusive: 26.6 µM [cytotoxic, single point]"
same,Potency,[4],"inconclusive: 33.5 µM [cytotoxic, single point]"
same,Potency,[2],"inconclusive: 33.5 µM [cytotoxic, single point]"
same,Potency,[5],"inconclusive: 38.9 µM [cytotoxic, single point]"
same,Potency,[3],"inconclusive: 26.6 µM [cytotoxic, single point]"
CC(=O)OCC(=O)[C@@]12OC(C)(C)O[C@@H]1C[C@H]1[C@@H]3C[C@H](F)C4=CC(=O)C=C[C@]4(C)[C@@]3(F)[C@@H](O)C[C@@]12C,Potency,[1],"inconclusive: 33.5 µM [cytotoxic, single point]"
same,Potency,[5],"inconclusive: 38.9 µM [cytotoxic, partial curve, poor fit]"
COC(=O)Nc1nc2ccc(C(=O)c3cccs3)cc2[nH]1,Potency,[1],active: 11.8 nM and active: 106 nM
same,Potency,[4],"inconclusive: 0.0266 µM [cytotoxic, full curve, poor fit]"
same,Potency,[3],"inconclusive: 148 nM [cytotoxic, full curve] and inconclusive: 1.06 µM [cytotoxic, full curve]"
C#C[C@]1(O)CC[C@@H]2[C@@H]3CCc4cc(O)ccc4[C@H]3CC[C@@]21C,Potency,[1],active: 14.8 µM
same,Potency,[5],"inconclusive: 19.3 µM [cytotoxic, partial curve]"
same,Potency,[3],"inconclusive: 18.7 µM [cytotoxic, partial curve]"
CC1(C)[C@H]2CC[C@]3(C)[C@@H](C(=O)C=C4[C@@H]5C[C@@](C)(C(=O)O)CC[C@]5(C)CC[C@]43C)[C@@]2(C)CC[C@@H]1O,Potency,[1],inactive
same,Potency,[2],inactive
same,Potency,[5],inactive
same,Potency,[6],"inconclusive: 26.4 µM [cytotoxic, single point]"
CN1C(C(=O)Nc2ccccn2)=C(O)c2sc(Cl)cc2S1(=O)=O,Potency,[1],"inconclusive: 7.43 µM [cytotoxic, partial curve]"
same,Potency,[4],active: 2.96 µM
same,Potency,[5],"inconclusive: 19.3 µM [cytotoxic, partial curve]"
same,Potency,[6],active: 16.6 µM
O=C1OC2(c3ccccc31)c1cc(Br)c(O)c(Br)c1Oc1c2cc(Br)c(O)c1Br,Potency,[1],inactive
same,Potency,[2],"inconclusive: 26.6 µM [cytotoxic, single point]"
COc1cc(Nc2ncc(F)c(Nc3ccc4c(n3)N(COP(=O)(O)O)C(=O)C(C)(C)O4)n2)cc(OC)c1OC,Potency,[1],"inconclusive: 1.87 µM [cytotoxic, full curve]"
same,Potency,[2],active: 1.32 µM
same,Potency,[6],active: 0.935 µM
same,Potency,[3],active: 4.69 µM
O=S(=O)(O)c1ccc2cc(N=Nc3cc(S(=O)(=O)O)c4cccnc4c3O)ccc2c1,Potency,[1],"inconclusive: 14.8 µM [cytotoxic, partial curve, poor fit]"
same,Potency,[4],"inconclusive: 18.7 µM [cytotoxic, single point]"
same,Potency,[5],"inconclusive: 6.85 µM [cytotoxic, partial curve]"
same,Potency,[6],"inconclusive: 16.6 µM [cytotoxic, partial curve]"
COc1cnc(NS(=O)(=O)c2ccc(N)cc2)nc1,Potency,[1],"inconclusive: 23.5 µM [cytotoxic, partial curve]"
same,Potency,[5],"inconclusive: 3.06 µM [cytotoxic, full curve]"
same,Potency,[6],"inconclusive: 10.5 µM [cytotoxic, partial curve, poor fit]"
CC[N+](CC)(CCNC(=O)C(=O)NCC[N+](CC)(CC)Cc1ccccc1Cl)Cc1ccccc1Cl,Potency,[7],inactive
CN(CC=CC#CC(C)(C)C)Cc1cccc2ccccc12,Potency,[7],"inconclusive: 20.9 µM [cytotoxic, partial curve]"
same,Potency,[4],"inconclusive: 37.2 µM [cytotoxic, single point]"
same,Potency,[2],"inconclusive: 37.2 µM [cytotoxic, single point]"
same,Potency,[6],"inconclusive: 33.2 µM [cytotoxic, single point]"
C[C@@H](N)C1CCC(C(=O)Nc2ccncc2)CC1 (stereo partly specified),Potency,[7],active: 7.43 µM
same,Potency,[2],"inconclusive: 37.2 µM [cytotoxic, single point]"
same,Potency,[5],inactive
Nc1ccc(C(=O)NCC(=O)O)cc1,Potency,[7],inactive
same,Potency,[2],"inconclusive: 0.0024 µM [cytotoxic, full curve, poor fit]"
CCCc1cc(C(N)=S)ccn1,Potency,[7],inactive
same,Potency,[4],inactive
NC(=O)Nc1cc(-c2ccc(CN3CCOCC3)cc2)sc1C(N)=O,Potency,[1],"inconclusive: 18.7 µM [cytotoxic, partial curve]"
same,Potency,[5],active: 21.7 µM
same,Potency,[3],active: 18.7 µM
Nc1cccc2c1C(=O)N(C1CCC(=O)NC1=O)C2=O (stereo unspecified),Potency,[7],inactive
Oc1c(Cl)cc(Cl)c(Cl)c1Cc1c(O)c(Cl)cc(Cl)c1Cl,Potency,[7],active: 4.22 µM
same,Potency,[2],"inconclusive: 2.66 µM [cytotoxic, full curve, poor fit]"
same,Potency,[5],active: 9.78 µM
same,Potency,[6],active: 4.73 µM
same,Potency,[3],"inconclusive: 5.31 µM [cytotoxic, full curve, poor fit]"
CCN(Cc1ccncc1)C(=O)C(CO)c1ccccc1 (stereo unspecified),Potency,[7],inactive
same,Potency,[4],inactive
same,Potency,[2],"inconclusive: 0.0017 µM [cytotoxic, full curve, poor fit]"
same,Potency,[5],inactive
CC(=O)c1ccc2c(c1)N(CCCN1CCC(CCO)CC1)c1ccccc1S2,Potency,[7],"inconclusive: 15 µM [cytotoxic, partial curve]"
same,Potency,[4],"inconclusive: 33.5 µM [cytotoxic, single point]"
same,Potency,[5],"inconclusive: 24.6 µM [cytotoxic, single point]"
same,Potency,[3],"inconclusive: 16.8 µM [cytotoxic, partial curve, poor fit]"
Nc1[nH]nc2nnc(-c3c(-c4ccccc4)nn4ccccc34)cc12,Potency,[7],"inconclusive: 2.96 µM [cytotoxic, full curve]"
same,Potency,[2],active: 0.0332 µM
same,Potency,[5],active: 2.73 µM
same,Potency,[3],"inconclusive: 11.8 µM [cytotoxic, partial curve]"
Cc1c(NC(=O)c2cccnc2)c(=O)n(-c2ccccc2)n1C,Potency,[7],"inconclusive: 33.5 µM [cytotoxic, single point]"
CCCCOC(=O)c1ccc(N)cc1,Potency,[1],inactive
same,Potency,[6],"inconclusive: 29.9 µM [cytotoxic, single point]"
Oc1cc(-c2nc(-c3ccccc3)[nH]c2-c2ccncc2)ccc1Cl,Potency,[1],active: 5.9 µM
same,Potency,[3],"inconclusive: 23.5 µM [cytotoxic, single point]"
CCN(CC)CCCN(c1ccccc1)C1Cc2ccccc2C1,Potency,[7],"inconclusive: 29.9 µM [cytotoxic, single point]"
same,Potency,[2],"inconclusive: 33.5 µM [cytotoxic, single point]"
same,Potency,[5],inactive
CC(C)C[C@H](NC(=O)[C@H](Cc1ccccc1)NC(=O)c1cnccn1)B(O)O,Potency,[7],active: 0.0266 µM
O=C(CCCN1CCC(O)(c2cccc(C(F)(F)F)c2)CC1)c1ccc(F)cc1,Potency,[7],"inconclusive: 21.1 µM [cytotoxic, partial curve, poor fit]"
same,Potency,[4],"inconclusive: 21.1 µM [cytotoxic, partial curve, poor fit]"
C=C1C[C@H]2[C@@H]3C=C(C)C4=CC(=O)CC[C@]4(C)[C@H]3CC[C@]2(C)[C@@]1(OC(C)=O)C(C)=O,Potency,[7],inactive
same,Potency,[2],"inconclusive: 33.5 µM [cytotoxic, single point]"
same,Potency,[5],inactive
COC(=O)c1ccc2c(C(=Nc3ccc(N(C)C(=O)CN4CCN(C)CC4)cc3)c3ccccc3)c(O)[nH]c2c1,Potency,[7],active: 16.6 µM
same,Potency,[4],active: 0.296 µM
same,Potency,[2],"inconclusive: 0.0033 µM [cytotoxic, full curve, poor fit]"
same,Potency,[3],"inconclusive: 4.69 µM [cytotoxic, partial curve, poor fit]"
